{"source": "PubChem BioAssay AID485344", "about": "(National Center for Advancing Translational Sciences (NCATS), 2010)", "note": "Values joined by “and” are separate entries in the source; they are usually repeats but may differ in a detail not shown here. Equal values may be shown once. Among all 340,000 compounds or so, about 6,900 (2%) were called active. No stated cut-off is given here; in the data, active means inhibition above about 30%; inactive means below that, where a call was filed. This is a selection; strong and weak results do not stand in their true shares. Where no call is shown, the source filed none.", "data": [{"target": "D(2) dopamine receptor (Homo sapiens) (UniProt P14416)", "sequence (P14416 whole entry, looked up)": "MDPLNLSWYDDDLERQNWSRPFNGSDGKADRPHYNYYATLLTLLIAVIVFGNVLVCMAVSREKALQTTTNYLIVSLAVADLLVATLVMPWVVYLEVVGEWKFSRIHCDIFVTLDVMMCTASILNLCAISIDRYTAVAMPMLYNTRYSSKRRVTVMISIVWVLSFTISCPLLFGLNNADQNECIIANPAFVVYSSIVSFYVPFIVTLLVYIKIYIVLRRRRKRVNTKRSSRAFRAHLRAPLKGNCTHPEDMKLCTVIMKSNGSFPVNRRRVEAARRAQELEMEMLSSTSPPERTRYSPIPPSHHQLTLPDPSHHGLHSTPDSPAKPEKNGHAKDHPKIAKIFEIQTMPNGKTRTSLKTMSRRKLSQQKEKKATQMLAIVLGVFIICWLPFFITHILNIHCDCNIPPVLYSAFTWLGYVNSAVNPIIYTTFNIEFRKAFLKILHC", "assay": "HTS Assay for Allosteric Antagonists of the Human D2 Dopamine Receptor: Primary Screen for Antagonists; further: 0% is about no effect", "settings": "HEK293 TREx D2 cells, calcium flux, dopamine EC80; at 10 µM; stronger effect = higher value", "in_short": "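Calcium mobilization kinetics were recorded at 1 s intervals in tetracycline-induced HEK293 T-REx D2 cells, first for 180 s after compound addition and then 180 s after EC80 dopamine.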", "values": [{"smiles": "COCCNc1sc(S(=O)(=O)c2ccc(C)cc2)nc1S(=O)(=O)c1ccc(C)cc1", "inhibition": "-3.04%"}, {"smiles": "CC(=O)Nc1ccc(NC(=O)CSc2nccn2C)cc1", "inhibition": "-20.9%"}, {"smiles": "N#Cc1ccc(C(c2ccc(C#N)cc2)n2cncn2)cc1", "inhibition": "active: 48.6%"}, {"smiles": "CCCN(C(=O)c1noc2c1COc1ccc(C)cc1-2)c1ccc(Cl)c(Cl)c1", "inhibition": "1.5%"}, {"smiles": "CCOC(=O)c1cc2c(=O)n3ccccc3nc2n(CC(C)C)c1=NC(=O)c1c(-c2c(F)cccc2Cl)noc1C", "inhibition": "-10.7%"}, {"smiles": "COC(=O)c1ccccc1NC(=O)c1c(NC(=O)c2ccco2)sc2c1CCC(C(C)(C)C)C2", "note": "(stereo not drawn)", "inhibition": "-5.4%"}, {"smiles": "CCCCN(CC)CCNC(=O)Cn1cc2c(n1)-c1c(oc(C(=O)N3CCCC3)c1C)CC2", "inhibition": "1.77%"}, {"smiles": "CN(C(=O)CSc1cn(CC(=O)N2CCOCC2)c2ccccc12)c1ccccc1", "inhibition": "-3.36%"}, {"smiles": "CC(=O)N1CCCc2cc(S(=O)(=O)N3CCC(C(=O)NCc4cccc(C)c4)CC3)ccc21", "inhibition": "16.4%"}, {"smiles": "COc1cccc(Cn2c(=O)n(Cc3ccco3)c(=O)c3oc4ccccc4c32)c1", "inhibition": "6.63%"}, {"smiles": "CC(=O)CCc1ccc(OCCCCN2CCC(Cc3ccccc3)CC2)cc1", "inhibition": "active: 54.2%"}, {"smiles": "CCCOc1cccc(C(=O)N(Cc2ccc(C)o2)C2CCS(=O)(=O)C2)c1", "note": "(stereo not drawn)", "inhibition": "5.03%"}, {"smiles": "CN1/C(=C/C=N/n2cnnc2)C(C)(C)c2ccccc21", "inhibition": "active: 56.3%"}, {"smiles": "COc1ccc(Cl)cc1NC(=O)CN1C(=O)COc2ccc(S(=O)(=O)NC3CCCC3)cc21", "inhibition": "-13.8%"}, {"smiles": "Cc1ccc(-c2nnc(Nc3ccc(O)cc3)c3ccccc23)cc1S(=O)(=O)N1CCOCC1", "inhibition": "7.84%"}, {"smiles": "COc1ccc(-c2cc(C(=O)Nc3c(C)nn(Cc4ccc(C)cc4)c3C)no2)cc1OC", "inhibition": "3.75%"}, {"smiles": "Cc1ccc(Nc2nn3c(=O)c4cc5c(cc4nc3s2)OCO5)cc1Cl", "inhibition": "14.4%"}, {"smiles": "CCOC(=O)c1cc(-c2ccccc2)n(-c2cccc(C(=O)Nc3ccc(OCC)cc3)c2)c1C", "inhibition": "7.98%"}, {"smiles": "COc1cccc(NS(=O)(=O)c2ccc(-c3cc(C)no3)s2)c1", "inhibition": "3.49%"}, {"smiles": "COc1cc(NS(=O)(=O)c2ccc3[nH]c4c(c3c2)CCCCCC4)cc(OC)c1", "inhibition": "-8.74%"}, {"smiles": "CCc1ccc(NC(=O)C(CC)n2c(=O)c(C(F)(F)F)nc3ccccc32)cc1", "note": "(stereo not drawn)", "inhibition": "4.21%"}, {"smiles": "Cc1ccc(NC(=O)CC(C)S(=O)(=O)c2ccc3c(c2)NC(=O)CO3)cc1Cl", "note": "(stereo not drawn)", "inhibition": "22.5%"}, {"smiles": "Cc1nc2nc(SCC(=O)NCc3ccccc3Cl)nn2c(C)c1Cc1ccccc1", "inhibition": "5.62%"}, {"smiles": "CCOC(=O)Cn1c(=O)c2c(nc3n2CCN3c2ccc(CC)cc2)n(C)c1=O", "inhibition": "16.3%"}, {"smiles": "COc1cc(Cl)c(C)cc1Nc1ncnc2c1nc1n2CCCC1", "inhibition": "16.1%"}, {"smiles": "Cc1ccc(-c2nc(SCC(=O)NCc3ccco3)c3c(=O)n(C)c(=O)n(C)c3n2)cc1", "inhibition": "-6.16%"}, {"smiles": "CCc1cccc(CC)c1NC(=O)CN1C(=O)C(=O)c2ccccc21", "inhibition": "7.3%"}, {"smiles": "CC(C)c1ccc(NC(=O)Cn2c(=O)n(CCc3ccccc3)c(=O)c3ccccc32)cc1", "inhibition": "-2.64%"}, {"smiles": "Cc1ccc(Nc2nnc(-c3ccc(C)c(S(=O)(=O)NCc4nc5ccccc5[nH]4)c3)c3ccccc23)cc1", "inhibition": "-7.01%"}, {"smiles": "CC1CCCC(NC(=O)CC2Nc3ccccc3NC2=O)C1C", "note": "(stereo not drawn)", "inhibition": "active: 30.5%"}, {"smiles": "Cc1ccc(C(=O)Nc2cccc(-c3nc4ccccc4o3)c2)c(Cl)c1", "inhibition": "-6.46%"}, {"smiles": "Cc1ccccc1OCC(O)Cn1c(=N)n(CCN2CCCCC2)c2ccccc21", "note": "(stereo not drawn)", "inhibition": "3.4%"}, {"smiles": "CC(C)COc1ccc(C(=O)N(Cc2ccc(N(C)C)cc2)Cc2ccco2)cc1", "inhibition": "-6.04%"}, {"smiles": "CCc1ccc(NC(=O)CCS(=O)(=O)c2ccc3c(c2)n(C)c(=O)c(=O)n3C)cc1", "inhibition": "1.74%"}, {"smiles": "Cc1ccc(/C=C/c2nc3ccccc3[nH]2)cc1", "inhibition": "-23%"}, {"smiles": "CC1CCCCN1c1nnc(NC(=O)Nc2ccccc2F)s1", "note": "(stereo not drawn)", "inhibition": "-8.13%"}, {"smiles": "CCC(Cn1nnc2ccccc2c1=O)NC(=O)Nc1ccc(C)c(C)c1", "note": "(stereo not drawn)", "inhibition": "-0.0057%"}, {"smiles": "O=C(CCN1CCN(c2ccccc2)CC1)NNC(=S)Nc1ccccc1Cl", "inhibition": "active: 66.3%"}, {"smiles": "COCCCNC(=O)CSc1nc2cc(OC)c(OC)cc2c2nc(-c3ccccc3)nn12", "inhibition": "-1.41%"}, {"smiles": "Cc1ccc(OCc2nc3ccccc3n2CCOc2ccc(Cl)cc2)cc1", "inhibition": "2.56%"}, {"smiles": "CC1CCCN(C(=O)c2cc3c(Cl)nc4ccccc4c3s2)C1", "note": "(stereo not drawn)", "inhibition": "-1.41%"}, {"smiles": "CS(=O)(=O)CCC(C(=O)Nc1cccc(C(F)(F)F)c1)N1Cc2ccccc2C1=O", "note": "(stereo not drawn)", "inhibition": "-12.5%"}, {"smiles": "Cc1ccc(CNS(=O)(=O)c2cc3c(cc2C)NC(=O)CO3)cc1", "inhibition": "11.1% and active: 47.5%"}, {"smiles": "CN(CC(=O)Nc1cccc(C(F)(F)F)c1)S(=O)(=O)c1cccs1", "inhibition": "-2.11%"}, {"smiles": "O=C(Cn1c(-c2cccs2)cc2ccccc21)NCCc1ccc(Cl)cc1", "inhibition": "0.26%"}, {"smiles": "Cc1nc(SCC(=O)Nc2ccccc2Cl)oc1C", "inhibition": "active: 31.2%"}, {"smiles": "COC(=O)C(C)Sc1ncnc2c1c(-c1ccccc1)cn2-c1ccc(F)cc1", "note": "(stereo not drawn)", "inhibition": "-20%"}, {"smiles": "CCOc1ccc(S(=O)(=O)Nc2ccc3c(c2)N(C(C)=O)CCC3)cc1", "inhibition": "-22.7%"}, {"smiles": "CCOc1ccccc1NC(=O)c1cc2c(=O)oc3ccccc3c2s1", "inhibition": "-0.0974%"}, {"smiles": "O=C(c1ccc(CSc2nc3ccncc3n2Cc2cccc(F)c2)cc1)N1CCCCCC1", "inhibition": "7.43%"}, {"smiles": "Cc1cncn1CCc1nc2c3ccccc3nc(SCC(=O)Nc3cccc(Cl)c3)n2n1", "inhibition": "-17.7%"}, {"smiles": "COc1ccc(OC)c(NC(=O)c2c(NCc3cccs3)sc3c2CCCC3)c1", "inhibition": "6.61%"}, {"smiles": "Cc1ccc(Cn2c(=O)n(CCCC(=O)NCc3ccccc3Cl)c(=O)c3ccccc32)cc1", "inhibition": "10.4%"}, {"smiles": "Cc1ccc(NC(=O)C2CCN(c3nc4ccccc4[nH]3)CC2)c(C)c1", "inhibition": "-8.62%"}, {"smiles": "COC(=O)c1cnc(N2CCN(c3ccccc3F)CC2)c2ccccc12", "inhibition": "-6.52%"}, {"smiles": "COCCN1C(=O)c2[nH]nc(-c3cc(C)ccc3O)c2C1c1ccc(C(C)C)cc1", "note": "(stereo not drawn)", "inhibition": "-0.0327%"}, {"smiles": "Cc1cccc(N2CCN(C(=O)CCc3c(C)nc4ncnn4c3C)CC2)c1C", "inhibition": "1.04%"}, {"smiles": "CCc1ccccc1NC(=O)c1cc(S(=O)(=O)N2CCCC2)cn1C", "inhibition": "-11.2%"}, {"smiles": "CC(C)c1cccc(C(C)C)c1NC1=NS(=O)(=O)c2ccccc21", "inhibition": "7.53%"}, {"smiles": "COc1ccccc1NC(=O)NCCN1CCN(c2cccc(Cl)c2)CC1", "inhibition": "active: 53.2%"}, {"smiles": "CCOC(=O)c1noc2ncnc(N3CCC(C)CC3)c12", "inhibition": "6.55%"}, {"smiles": "COc1cccc(C(=O)CSc2nc3cccnc3n2C)c1", "inhibition": "active: 37.5%"}, {"smiles": "CCOc1ccc(Oc2nc(NC)nc(N3CCOCC3)n2)nn1", "inhibition": "5.15%"}]}]}
